Test results from the GPR68 mutational scans of Howard et al. (2025).
The least precise scores are not listed. Two further conditions of the source, in which the scores hardly spread, are not listed. In variant names, del marks residues removed and ins residues inserted between the two positions. For part of these data: The data file names ogerin without a concentration.

B1: GPR68, Q15743 (parent)
chain: MGNITADNSSMSCTIDHTIHQTLAPVVYVTVLVVGFPANCLSLYFGYLQIKARNELGVYLCNLTVADLFYICSLPFWLQYVLQHDNWSHGDLSCQVCGILLYENIYISVGFLCCISVDRYLAVAHPFRFHQFRTLKAAVGVSVVIWAKELLTSIYFLMHEEVIEDENQHRVCFEHYPIQAWQRAINYYRFLVGFLFPICLLLASYQGILRAVRRSHGTQKSRKDQIQRLVLSTVVIFLACFLPYHVLLLVRSVWEASCDFAKGVFNAYHFSLLLTSFNCVADPVLYCFVSETTHRDLARLRGACLAFLTCSRTGRAREAYPLGAPEASGKSGAQGEEPELLTKLHPAFQTPNSPGSGGFPTGRLA

What was measured:
[1] = variants of: B1; test: cAMP reporter score (Enrich2 score, wild type = 0); higher = more signal; HEK293T, FACS bins
[2] = variants of: B1; test: surface expression score (Enrich2 score, wild type = 0); higher = more signal; HEK293T, FACS bins

Row | Variant | cAMP reporter score ([1]; pH 5.5) | cAMP reporter score ([1]; pH 6) | cAMP reporter score ([1]; pH 6, modulator: ogerin) | cAMP reporter score ([1]; pH 6.5, modulator: ogerin) | surface expression score [2]
1 | MGNITADNSSMSCTIDHTIHQTLAPVVYVTVLVVGFPANCLSLYFGYLQIKARNELGMYLCNLTVADLFYICSLPFWLQYVLQHDNWSHGDLSCQVCGILLYENIYISVGFLCCISVDRYLAVAHPFRFHQFRTLKAAVGVSVVIWAKELLTSIYFLMHEEVIEDENQHRVCFEHYPIQAWQRAINYYRFLVGFLFPICLLLASYQGILRAVRRSHGTQKSRKDQIQRLVLSTVVIFLACFLPYHVLLLVRSVWEASCDFAKGVFNAYHFSLLLTSFNCVADPVLYCFVSETTHRDLARLRGACLAFLTCSRTGRAREAYPLGAPEASGKSGAQGEEPELLTKLHPAFQTPNSPGSGGFPTGRLA [V58M] | -0.675 | -0.566 | -0.741 | -0.627 | -1.01
2 | MGNITADNSSMSCTIDHTIHQTLAPVVYVTVLVVGFPANCLSLYFGYLQIKARNELGNYLCNLTVADLFYICSLPFWLQYVLQHDNWSHGDLSCQVCGILLYENIYISVGFLCCISVDRYLAVAHPFRFHQFRTLKAAVGVSVVIWAKELLTSIYFLMHEEVIEDENQHRVCFEHYPIQAWQRAINYYRFLVGFLFPICLLLASYQGILRAVRRSHGTQKSRKDQIQRLVLSTVVIFLACFLPYHVLLLVRSVWEASCDFAKGVFNAYHFSLLLTSFNCVADPVLYCFVSETTHRDLARLRGACLAFLTCSRTGRAREAYPLGAPEASGKSGAQGEEPELLTKLHPAFQTPNSPGSGGFPTGRLA [V58N] | -1.02 | – | – | -1.58 | -1.9
3 | MGNITADNSSMSCTIDHTIHQTLAPVVYVTVLVVGFPANCLSLYFGYLQIKARNELGPYLCNLTVADLFYICSLPFWLQYVLQHDNWSHGDLSCQVCGILLYENIYISVGFLCCISVDRYLAVAHPFRFHQFRTLKAAVGVSVVIWAKELLTSIYFLMHEEVIEDENQHRVCFEHYPIQAWQRAINYYRFLVGFLFPICLLLASYQGILRAVRRSHGTQKSRKDQIQRLVLSTVVIFLACFLPYHVLLLVRSVWEASCDFAKGVFNAYHFSLLLTSFNCVADPVLYCFVSETTHRDLARLRGACLAFLTCSRTGRAREAYPLGAPEASGKSGAQGEEPELLTKLHPAFQTPNSPGSGGFPTGRLA [V58P] | -1.2 | -0.928 | -2.2 | -0.764 | -2.98
4 | MGNITADNSSMSCTIDHTIHQTLAPVVYVTVLVVGFPANCLSLYFGYLQIKARNELGQYLCNLTVADLFYICSLPFWLQYVLQHDNWSHGDLSCQVCGILLYENIYISVGFLCCISVDRYLAVAHPFRFHQFRTLKAAVGVSVVIWAKELLTSIYFLMHEEVIEDENQHRVCFEHYPIQAWQRAINYYRFLVGFLFPICLLLASYQGILRAVRRSHGTQKSRKDQIQRLVLSTVVIFLACFLPYHVLLLVRSVWEASCDFAKGVFNAYHFSLLLTSFNCVADPVLYCFVSETTHRDLARLRGACLAFLTCSRTGRAREAYPLGAPEASGKSGAQGEEPELLTKLHPAFQTPNSPGSGGFPTGRLA [V58Q] | -1.67 | -0.866 | -1.15 | -0.757 | -2.02
